The values that follow come from article PMC6919601, “Identification of Plasmodium dipeptidyl aminopeptidase allosteric inhibitors by high throughput screening” (PLoS ONE, 2019).

In all, about 110,000 compounds went through this assay and about 230 (0.21%) showed an effect of 50% or more. Some of the results follow.
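Also: 30 min substrate incubation versus DMSO and 10 µM JCP410 controls.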

Chain of DPAP1 (Q8IIJ9 whole entry, looked up): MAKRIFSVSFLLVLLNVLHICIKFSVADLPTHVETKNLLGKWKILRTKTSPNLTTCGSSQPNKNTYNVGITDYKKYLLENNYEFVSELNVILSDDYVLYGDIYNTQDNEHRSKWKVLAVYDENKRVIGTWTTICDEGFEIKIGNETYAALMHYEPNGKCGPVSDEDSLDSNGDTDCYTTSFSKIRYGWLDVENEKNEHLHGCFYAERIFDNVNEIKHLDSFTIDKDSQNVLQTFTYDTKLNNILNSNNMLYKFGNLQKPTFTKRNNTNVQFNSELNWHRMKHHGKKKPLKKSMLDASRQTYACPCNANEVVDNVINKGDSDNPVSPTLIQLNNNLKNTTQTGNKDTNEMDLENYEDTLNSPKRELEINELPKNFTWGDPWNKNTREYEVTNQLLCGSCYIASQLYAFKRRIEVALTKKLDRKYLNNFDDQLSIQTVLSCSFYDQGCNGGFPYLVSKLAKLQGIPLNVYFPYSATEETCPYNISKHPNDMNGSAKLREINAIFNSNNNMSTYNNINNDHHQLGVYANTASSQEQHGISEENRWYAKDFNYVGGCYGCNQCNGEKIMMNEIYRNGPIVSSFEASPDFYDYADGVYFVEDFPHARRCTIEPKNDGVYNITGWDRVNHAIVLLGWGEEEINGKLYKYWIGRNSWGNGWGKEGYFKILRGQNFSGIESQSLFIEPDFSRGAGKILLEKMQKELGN

The assay has as its target DPAP1 (Plasmodium falciparum, UniProt Q8IIJ9). Kind of assay: primary screen, percent inhibition; read by cleavage of a fluorogenic dipeptide substrate; higher = more effect of the substance. Details: species or system P. falciparum D10 trophozoite lysates; single well.
As for `COc1ccc(-c2cnc(OC(C)(C)C)nc2OC(C)(C)C)cc1OC`, the “% Inhibition @ 10 uM” value is -1.04%. The figure for `c1ccc(-c2cc3c(N4CCCC4)ncnc3s2)cc1` is 4.89%; for `Cc1ccc2nc(C)c3cc(C)oc3c2c1` it is 2.05%. The value for `O=C(Cn1cnc2onc(-c3ccc(F)cc3)c2c1=O)NCc1ccc2c(c1)OCO2` was 2.75%; that for `O=C(Nc1nn2c(-c3ccccc3)nnc2s1)C1CCCCC1` was 2.53%. The value for `Cc1nn(-c2ccc(Cl)cc2)c2c(=O)c(I)cccc12` was -0.994%. With `CCOc1ccccc1NC(=O)c1cnn(CC)c1`, the “% Inhibition @ 10 uM” value is given as -10.6%. Turning to `COc1ccc(C2C(C#N)=C(N)OC3=C2C(=O)CCC3)cc1O` (stereo not drawn), the “% Inhibition @ 10 uM” value is -3.62%.

Take `CC(C)C[C@H](NC(=O)OCc1ccccc1)C(=O)N[C@H]1CCN(C(=O)[C@H](CC(C)C)NC(=O)c2ccc(-c3cnc(Nc4ccncc4)s3)cc2)C1`: the “% Inhibition @ 10 uM” value is on record as -3.04%.

As to `C1=C(c2ccccc2)CCN(Cc2nnc(-c3ccc4c(c3)OCO4)o2)C1`, the “% Inhibition @ 10 uM” value is reported as 3.5%. The figure for `CCCCCC1CCC(c2ccc(C(=O)Nc3nc4ccccc4n3C)cc2)CC1` (stereo not drawn) is -0.803%; for `COc1ccc(C2=N/C(=C/c3cc4ccccc4nc3N3CCOCC3)C(=O)O2)cc1` it is -5.15%. The figure for `Clc1cccc(-c2nnc3sc(-c4ccncc4)nn23)c1` is -5.91%; for `CCCCc1[nH]nc2c1C(c1cc(Br)cs1)C(C#N)=C(N)O2` (stereo not drawn) it is 4.09%. The figure for `O=C(NC1C2CC3CC(C2)CC1C3)c1cc2ccccc2o1` (stereo not drawn) is -8.2%; for `O=C(CN1CCCC1)Nc1c2c(nc3ccccc13)CCC2` it is -1.91%; for `CC(C(=O)Nc1nccs1)c1cccc(C(=O)c2ccccc2)c1` (stereo not drawn) it is -1.52%. As for `Cc1c2cnn(CC(=O)NCc3ccccc3Cl)c(=O)c2c(C)n1Cc1ccccc1`, the “% Inhibition @ 10 uM” value amounted to 2.84%. The value for `C=CCNC(=O)c1cc(-c2ccc(C)s2)nc2ccccc12` was 0.163%; that for `O=C(CSc1nnnn1-c1cccc2ccccc12)NC(c1ccccc1)c1ccccc1` was 0.0719%; that for `CCOc1ccc(C2=NN3C(C2)c2cccc(OC)c2OC32CCC(C)CC2)cc1` (stereo not drawn) was 35.1%. Regarding `CCN(Cc1ccccc1)C(=O)Nc1cn(C)c(=O)c2ccccc12`, the “% Inhibition @ 10 uM” value was 2.01%.

For `O=C1c2ccccc2NC(c2cccc(O)c2)N1Cc1ccco1` (stereo not drawn), the “% Inhibition @ 10 uM” value was 2.36%. The figure for `CC(=O)CCc1oc2ccc(C)cc2c1-c1ccc(C)cc1` is -3.14%. Take `Cc1cc2nc3c(=O)n(C)c(=O)n(C)c3nc2cc1N`: the “% Inhibition @ 10 uM” value was -0.807%. The value for `COc1cc(OC)cc(C(=O)N2CCN(Cc3ccccc3C)CC2)c1` was 0.635%.

For the molecule `CC(CCc1ccco1)NC(=O)Cn1ncc2c(Cl)cccc21` (stereo not drawn), the “% Inhibition @ 10 uM” value amounted to 0.596%. The value for `CC(C)C[C@H](NC(=O)c1cccc(OCc2ccccc2)c1)C(=O)NCC#N` was 4.63%; that for `Cc1cc(N)c2cc(Br)ccc2n1` was -4.3%.

On to `O=C1c2ccccc2NC(c2ccc3c(c2)OCO3)N1c1ccc(F)cc1` (stereo not drawn), for which the “% Inhibition @ 10 uM” value was 5.04%.

In the case of `COc1ccc(S(=O)(=O)N2CCN(c3ncccn3)CC2)cc1`, the “% Inhibition @ 10 uM” value is -2.69%.

Consider `COc1cccc(C(=O)Nc2ccccc2F)c1`, for which the “% Inhibition @ 10 uM” value stood at 5.29%. The value for `CN(C)CC#CCC(O)(c1ccccc1)C1CCCCC1` (stereo not drawn) was -4.43%. The figure for `CC(C)C[C@H](NC(=O)c1ccc(-c2csc(-c3cccnc3)n2)cc1)C(=O)N[C@@H]1CCN(Cc2ccccc2)C1` is 5.05%; for `COc1cccc(C2=CC(c3ccc(OC)c(OC)c3OC)n3nnnc3N2)c1` (stereo not drawn) it is -0.125%; for `CC(C)c1ccc(-n2cccc2)cc1` it is -2.17%. The value for `Cc1cccc(-n2ncc3c(N4CCC(C)CC4)ncnc32)c1` was 6.44%; that for `COc1cc(/C=C2/C(=N)N3OC(C)=CC3=NC2=O)cc(OC)c1OCCOc1ccccc1Cl` was -1.43%. `CC(C)N(C(=O)/C=C/c1cccc([N+](=O)[O-])c1)C(C)C`: the “% Inhibition @ 10 uM” value was determined as 7.66%. The value for `O=C(Nc1ccc(Cl)c(Cl)c1)c1ccccc1NC(=O)C1CC=CCC1C(=O)O` (stereo not drawn) was -0.95%. Consider `Cc1csc2nc(CNC(=O)C3CCCCC3)cn12`, for which the “% Inhibition @ 10 uM” value is reported as -6.09%. The value for `COc1cccc(CN2CCN(C(=O)c3ccc(-c4ccccc4)cc3)CC2)c1` was 0.131%; that for `CN1C2=C(C(=O)CC(C)(C)C2)C(c2cc(Br)ccc2O)C2=C1CC(C)(C)CC2=O` was -2.85%; that for `CCOc1ccc(C2=CC(=O)C(CC(=O)O)CC2)cc1` (stereo not drawn) was 1.63%. The figure for `C=CCO/C(O)=C1/C(C)=Nc2ncnn2C1c1ccc(Br)cc1` (stereo not drawn) is -1.62%; for `CCCC1=C(C(=O)OCC)C(c2c(F)cccc2Cl)NC(=O)N1C` (stereo not drawn) it is -1.6%; for `Cc1ccc(-c2nc(CS(=O)(=O)CC(=O)N3CCN(C)CC3)c(C)o2)cc1` it is -3.7%. The value for `CC1CCCC(NC(=O)CCN2C(=O)c3ccccc3Sc3ncccc32)C1C` (stereo not drawn) was 4.84%.

Regarding `C#CCCCOc1nc(Cl)c(C)n(Cc2ccccc2)c1=O`, the “% Inhibition @ 10 uM” value is reported as 3.05%.

As to `CCOc1ccc(C/C(=N\CC(=O)O)C2=C(O)CC(C)(C)CC2=O)cc1OCC`, the “% Inhibition @ 10 uM” value is -4.49%. The figure for `Cc1cccc(OCC(=O)NC2CCCCC2NC(=O)COc2cccc(C)c2)c1` (stereo not drawn) is 1.28%.

In the case of `CC/N=c1\c(NC(=O)c2ccccc2F)c(O)oc2ccccc12`, the “% Inhibition @ 10 uM” value came to 2.5%. The value for `Cc1cc(C)c(C)c(OCCOCCN2CCN(C)CC2)c1` was -0.473%.

Regarding `CCOC(=O)c1c2n(c3c(NCc4ccccc4)ncnc13)CCC2`, the “% Inhibition @ 10 uM” value turned out to be 3.01%. The figure for `COCCN1C2=C(C(=O)CC(C)(C)C2)C(c2cccc(OC)c2)C2=C1CC(C)(C)CC2=O` is 0.147%; for `O=C(O)c1ccc2c(c1)C(=O)N(c1cc(C(=O)O)ccc1Cl)C2=O` it is 3.65%. The value for `COc1ccc(-n2nnnc2SCC(=O)N2CCCCC2)cc1` was -3.64%; that for `OC12CC3CC(C1)CC(O)(C3)C2` was -2.41%; that for `CC(=O)c1cccc(NC(=O)Cn2nc(C(F)(F)F)cc2C2CC2)c1` was 4.03%. For the molecule `CCOc1ccc(C(=O)Nc2ccccc2Cl)cc1`, the “% Inhibition @ 10 uM” value is on record as -1.09%. The value for `COc1ccc(CC(=O)Nc2nc3nc(-c4ccccc4)cc(O)n3n2)cc1` was 0.401%. The value for `CC1(C)CC(=O)C(/C=N/CC2CCN(C(=O)c3ccccc3)CC2)=C(O)C1` was 3.04%. The value for `Cc1ccc(/C=N/N=C2\CC(c3ccccc3)N=N2)s1` (stereo not drawn) was -5%. As to `CCOC(=O)N1CCN(c2c(NCCc3ccc(S(N)(=O)=O)cc3)c(=O)c2=O)CC1`, the “% Inhibition @ 10 uM” value is reported as -6.95%. The value for `C=CCOc1cccc(C2c3c(oc4ccc(F)cc4c3=O)C(=O)N2CCCN2CCOCC2)c1` (stereo not drawn) was -6.71%; that for `O=C(CCC(=O)Nc1cccnc1)Nc1cccnc1` was -5.06%. The figure for `COc1cc2c(cc1/C=C1/SC(Nc3ccccc3C)=NC1=O)OCO2` is -4.36%; for `OCCC1CCCCN1Cc1ccc(C(F)(F)F)cc1` (stereo not drawn) it is -3.27%; for `C=CCNC(=O)c1cc(Cl)ccc1NC(=O)c1ccc(Cl)cc1Cl` it is -2.1%. The figure for `CCCCn1c(C(C)NC(=O)c2cccs2)nc2ccccc21` (stereo not drawn) is 11.5%.

For the molecule `COc1ccc(CC(=O)Nc2ccc(S(=O)(=O)N3CCC(C)CC3)cc2)cc1`, the “% Inhibition @ 10 uM” value is 3.91%. The figure for `O=C(/C=C/n1c(=S)oc2ccccc21)c1ccccc1` is -0.292%. Consider `Cc1ccc(C(O)(c2ccccc2)c2nc3ccccc3n2C)cc1` (stereo not drawn), for which the “% Inhibition @ 10 uM” value is given as 7.56%. For the molecule `Nc1ccc(-c2ccc(-c3ccc(N)cc3)c(N)c2)cc1`, the “% Inhibition @ 10 uM” value is -2.74%.

As for `COc1ccc(C(CC(=O)O)NC(=O)c2ccco2)cc1OC` (stereo not drawn), the “% Inhibition @ 10 uM” value amounted to 3%. The value for `Cc1ccc(N2C(=O)CC(NC3CCCCCC3)C2=O)cc1` (stereo not drawn) was 8.08%; that for `Cc1cccc([N+]2=C3SCCCN3C(O)(c3cccs3)C2)c1C` (stereo not drawn) was 2.88%; that for `CO/C(O)=C1/C(C)=NC2=C(C(=O)CC(c3ccccc3)C2)C1c1cccnc1` (stereo not drawn) was -0.0953%. The figure for `Cc1nc2ccn(Cc3ccccc3)c(=O)c2cc1C(=O)N1CCCC1` is -3.04%; for `CCOc1ccc(N(CC(=O)Nc2ccc(F)cc2)S(=O)(=O)c2ccc(C)cc2)cc1` it is 6.69%. The figure for `Nc1ccc(NC(=O)c2ccc(C(=O)Nc3ccc(N)cc3)cc2)cc1` is -0.239%; for `Cc1cccc(NC(=O)c2sc3ccccc3c2Cl)n1` it is -2.46%. As to `CCOC(=O)N1CCN(S(=O)(=O)N2CCC(C(=O)O)CC2)CC1`, the “% Inhibition @ 10 uM” value is given as -3.78%. The value for `CC(C)N1CCN(C(=O)Cc2ccccc2)CC1` was -11.5%. The figure for `CCOC(=O)c1cc2c(=O)n3ccccc3nc2n(C)/c1=N\C(=O)c1ccccc1OCC` is 2.06%; for `CC1=C(C(=O)OC(C)C)C(c2ccc(C)s2)NC(=O)N1C` (stereo not drawn) it is 10.5%; for `Cc1nn(C(C)C(=O)NC(C)CCc2ccccc2)c(=O)c2c1sc1ccccc12` (stereo not drawn) it is -1.49%.

For the molecule `CCC(C)NC(=O)CNC(=S)N(CCCN1CCOCC1)Cc1cccs1` (stereo not drawn), the “% Inhibition @ 10 uM” value is reported as -6.49%. Regarding `COc1ccc(Cl)cc1NC(=O)COc1cccc(Cl)c1`, the “% Inhibition @ 10 uM” value worked out at 3.65%.

Turning to `C=CCn1c(COc2ccccc2C)nnc1SCC(=O)NC12CC3CC(CC(C3)C1)C2`, the “% Inhibition @ 10 uM” value is reported as -4.04%. The value for `CN1C2CCC1CC(N(CCc1ccccc1)C(=O)c1ccc(Cl)cc1)C2` (stereo not drawn) was 1.4%; that for `COc1ccc(C)cc1N(CC(=O)NCc1ccncc1)S(=O)(=O)c1ccc(C)cc1` was -4.05%.

Regarding `CC(C)CSc1nc2c(c(=O)n(C)c(=O)n2C)n1Cc1ccccc1`, the “% Inhibition @ 10 uM” value came to 4%. Regarding `CCc1ccc(Oc2nc3ccccn3c(=O)c2/C=C(\C#N)C(=O)NCCCOC(C)C)cc1`, the “% Inhibition @ 10 uM” value was -0.828%. The figure for `CCOCCCNc1nc2c(S(=O)(=O)c3ccc(C)c(C)c3)nnn2c2ccsc12` is -7.78%; for `O=C(O)c1ccc(N2C(=O)C3C4C=CC(C5CC45)C3C2=O)cc1` (stereo not drawn) it is -1.59%.

For the molecule `O=c1c2ccccc2n2c(-c3ccccc3O)nnc2n1CCc1ccccc1`, the “% Inhibition @ 10 uM” value is on record as -5.37%.

As to `OCC1CCCCN1Cc1ccc(Br)cc1` (stereo not drawn), the “% Inhibition @ 10 uM” value is listed as -4.15%. The value for `CN(Cc1ccccc1)S(=O)(=O)c1ccc(NC(=O)c2ccccc2C(=O)O)cc1` was -7.84%.
